# Test results: the BET-seq Pho4 binding data (Le et al. 2018)
# The list shows a part of the results. These are noisy estimates, calculated here from bound and input reads.
# Biological target: T1, Pho4 (S. cerevisiae) (UniProt P07270)
# T1 sequence: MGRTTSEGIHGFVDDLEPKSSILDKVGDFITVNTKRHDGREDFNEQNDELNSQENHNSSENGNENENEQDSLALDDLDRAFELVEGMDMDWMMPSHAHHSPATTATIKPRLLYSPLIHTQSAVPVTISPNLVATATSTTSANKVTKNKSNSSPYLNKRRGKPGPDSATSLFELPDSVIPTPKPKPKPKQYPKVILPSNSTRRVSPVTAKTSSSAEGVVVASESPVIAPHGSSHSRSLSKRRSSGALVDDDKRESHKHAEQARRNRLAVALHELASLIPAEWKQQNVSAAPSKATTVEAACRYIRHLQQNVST
# Experiment: relative binding free energy (BET-seq); higher = weaker binding
# Conditions: reference: library average
row,Sequence,relative binding free energy [kcal/mol]
1,GCCTGCACGTGGGGGA,-0.16
2,TTTCGCACGTGATTGT,0.29
3,GGAGCCACGTGTGGGA,0.16
4,GTGTACACGTGATGAG,0.24
5,TTGGCCACGTGGTATA,-0.13
6,AGAAACACGTGGGATA,0.1
7,CTGAGCACGTGGTTTG,0.03
8,GGTTTCACGTGTGCAA,0.3
9,GTATGCACGTGTGGGA,0.1
10,GTTTACACGTGTAAGG,0.28
11,GTGGTCACGTGGCTGG,0.15
12,TGTATCACGTGAAAGT,0.38
13,CTGCTCACGTGATTTT,0.32
14,GGTTTCACGTGTACGT,0.34
15,CTGGGCACGTGATGTA,-0.04
16,CGGCGCACGTGGTCGG,-0.16
17,TGGAGCACGTGTGATG,0.02
18,TGTAGCACGTGAATAT,0.34
19,GTGGGCACGTGTATCG,0.01
20,GTGAACACGTGGTAGC,0.1
21,ACAGTCACGTGTGAGG,0.28
22,GCTAGCACGTGAGAGG,0.15
23,TGTATCACGTGCATAA,0.28
24,GTCTACACGTGGGGGG,0
25,TGTAGCACGTGCGCGG,-0.33
26,TGATTCACGTGGCAGT,0.15

row,Sequence,relative binding free energy [kcal/mol]
1,TTGGGCACGTGGCATA,-0.29
2,TTGTACACGTGCAGTG,0.15
3,TTTATCACGTGTCTTA,0.17
4,ATCTTCACGTGATGTA,0.19
5,ATTGGCACGTGGACAG,-0.14
6,AATTTCACGTGTGTGA,0.31
7,TTATTCACGTGAATGT,0.24
8,ATGTGCACGTGATTCT,0.11
9,GTCAACACGTGGGGGT,0.06
10,ATATGCACGTGAAAGT,0.03
11,GGGTGCACGTGTGGAA,0.05
12,TAGTTCACGTGCGTAT,0.27
13,GAGAGCACGTGAGAGT,0.2
14,TTCTGCACGTGGACGG,0
15,TGGGGCACGTGTCTAG,-0.08
16,AGGTCCACGTGGGGAA,-0.06
17,AGGAACACGTGGGTTG,-0.06
18,TCTAGCACGTGTGATG,-0.04
19,CTTGACACGTGATAGG,0.05
20,AACGGCACGTGAGGAG,0.12
21,TAGTGCACGTGAAGTG,0.34
22,ATTAACACGTGTGTTG,-0.13
23,TCAGGCACGTGGTAAT,-0.01
24,TAAAACACGTGGGTAT,-0.08
25,AATTGCACGTGCAGGT,-0.14
26,GGTAGCACGTGACTGG,0.1

row,Sequence,relative binding free energy [kcal/mol]
1,GGGAGCACGTGGGGCT,-0.24
2,TCTATCACGTGATATG,0.31
3,GGCGTCACGTGTAATT,0.24
4,TGTTGCACGTGGAGCA,-0.03
5,GGGTCCACGTGTATTA,0.04
6,TGTAACACGTGCTTGG,0.01
7,ATTCTCACGTGGAATT,0.31
8,TATGGCACGTGGTATC,-0.15
9,CGTGGCACGTGATAGT,-0.15
10,TTCATCACGTGTATGT,0.15
11,GGCTACACGTGTGGTG,0.3
12,TTTGGCACGTGTCTGG,-0.11
13,TGTGGCACGTGCTATT,-0.2
14,CTGAGCACGTGTGTTT,0.07
15,AGTTTCACGTGTGGTT,0.34
16,TTTAGCACGTGGAAGG,-0.02
17,AGGTACACGTGATGTT,0.17
18,TATTGCACGTGCGAGG,0.08
19,ATTTACACGTGTAATT,0.15
20,GTAAGCACGTGGGTTA,-0.22
21,AGCTACACGTGAGGGG,0.16
22,GTCGTCACGTGTTTGT,0.17
23,TTGGACACGTGGACGG,0.13
24,TGGCGCACGTGCGGTA,-0.16
25,GTTTGCACGTGTTTCA,0.12
26,ATTAGCACGTGCGGGG,-0.2

row,Sequence,relative binding free energy [kcal/mol]
1,TGGTCCACGTGCGGTT,-0.06
2,ATAGGCACGTGATAGT,-0.04
3,TGTGCCACGTGGTAGT,-0.16
4,TTTAACACGTGGCTAG,-0.07
5,TGGCTCACGTGTGGTC,0.23
6,TAGGGCACGTGGTGAA,-0.17
7,CGTTACACGTGAATGG,0.2
8,TTATTCACGTGGTAGA,0.2
9,GTAGACACGTGCTGTG,-0.01
10,GGCGGCACGTGGGTGG,-0.19
11,GATTACACGTGTATGT,0.2
12,ACTGGCACGTGGGCAG,-0.28
13,CTGAACACGTGGTTGA,0.04
14,TTTTTCACGTGCGGAC,0.3
15,GAGTTCACGTGGCGGT,0.39
16,TACTTCACGTGTTAGG,0.22
17,GAGAACACGTGTTTGT,-0.01
18,GGCCTCACGTGGTGGT,0.05
19,GATAGCACGTGGGCTG,-0.21
20,TTAGTCACGTGGGACT,0.05
21,GGATTCACGTGGTGTA,0.44
22,ATTTACACGTGTGTTG,0.11
23,GATCGCACGTGGTTAG,0.12
24,AGAGCCACGTGTTGGG,-0.06
25,TGGACCACGTGAAGGG,0.15
26,GGAGCCACGTGGTGAT,-0.1

row,Sequence,relative binding free energy [kcal/mol]
1,AGGCACACGTGTTTTG,0.12
2,ATTAACACGTGTGATG,0.13
3,AATGGCACGTGTTATG,-0.05
4,TGTTACACGTGCTAGG,-0.09
5,TCGGCCACGTGAGGTG,0.22
6,TTATGCACGTGCGCGA,-0.07
7,GTAATCACGTGCGTTG,0.04
8,TATTACACGTGGGCTG,0.08
9,GGTCGCACGTGGTTTA,-0.14
10,TATGCCACGTGGTTTT,-0.18
11,GGCGTCACGTGAGTGT,0.24
12,GGCTACACGTGGATGT,0.23
13,GGGCGCACGTGATTTG,0.09
14,GTGCTCACGTGTGGTA,0.15
15,GTGTGCACGTGTCCTG,0.11
16,TCTAGCACGTGTAGGG,-0.11
17,GATTGCACGTGTGGGT,0.16
18,CTCTTCACGTGTTTTA,0.33
19,TTAAACACGTGTCAGG,0.06
20,TGTTTCACGTGGTTGA,0.21
21,GTTAACACGTGGCTTA,0.12
22,GATGGCACGTGTTTAA,0.12
23,GCTGGCACGTGTGTGG,0.02
24,TAGAGCACGTGAGTGC,0.25
25,TTTAACACGTGGAAAG,0.16
26,TGGATCACGTGTGTTT,0.25

row,Sequence,relative binding free energy [kcal/mol]
1,CGTGGCACGTGATGTC,-0.11
2,TGTATCACGTGAGTCA,0.29
3,ATTGCCACGTGGAATT,0.05
4,AGGTGCACGTGTATTG,-0.13
5,TCAATCACGTGGTAGG,0.14
6,TGTTGCACGTGAACTA,0.2
7,TGATCCACGTGAAGTG,0.29
8,TAGTTCACGTGTGATC,0.41
9,CGGGACACGTGTGATT,0.11
10,AGGTACACGTGTGGTC,0.11
11,TTGATCACGTGGTGCG,0.07
12,GTCTTCACGTGAGGTT,0.33
13,GGCGGCACGTGGAGTG,-0.12
14,TTGTACACGTGGGACG,0.03
15,TATTTCACGTGTGGAC,0.25
16,GGAGTCACGTGGGATG,-0.01
17,TGCAGCACGTGTAGTG,-0.02
18,GTTCGCACGTGTAGGC,0.03
19,AGTATCACGTGTGGTC,0.2
20,TGGTTCACGTGAATTC,0.38
21,TTGGGCACGTGGCGGA,-0.21
22,CATAGCACGTGTTGGG,-0.2
23,TAACTCACGTGGTGTG,0.21
24,GTTGCCACGTGTGGAG,0.01
25,TCTGGCACGTGGGGTT,-0.16
26,GGGCGCACGTGGTATG,-0.11

row,Sequence,relative binding free energy [kcal/mol]
1,AGGATCACGTGTGAAA,0.24
2,TGGCACACGTGACGGG,0.12
3,TAGTCCACGTGTGTTG,-0.05
4,TGAGTCACGTGGGTCG,-0.05
5,GAGAGCACGTGTAGGA,-0.04
6,GTAGGCACGTGGCGGC,-0.15
7,AGTGGCACGTGTCTTT,-0.12
8,GCTTTCACGTGAGTGT,0.25
9,GGAAGCACGTGTTTAA,0.1
10,TTTTGCACGTGCGACG,0.02
11,GTGGTCACGTGTGTCT,0.08
12,CCGGGCACGTGGGGGA,-0.36
13,AGGGTCACGTGTGAGC,0.14
14,TTACTCACGTGTCGGT,0.21
15,ATGTACACGTGCATTG,-0.03
16,TTAATCACGTGAGCTG,0.34
17,GTATACACGTGGGATG,-0.15
18,GAAGTCACGTGCATGG,0.19
19,TTGGTCACGTGAAGTA,0.29
20,TTTCTCACGTGGGAAT,0.15
21,TGTAGCACGTGTACTT,-0.14
22,TTAGTCACGTGGGGTC,-0.06
23,GTAATCACGTGGTCGC,0.31
24,GGTTTCACGTGGATAC,0.25
25,TTGGGCACGTGAGACG,-0.01
26,AGCTGCACGTGTTATG,0.05

row,Sequence,relative binding free energy [kcal/mol]
1,AGTTGCACGTGGGTGA,-0.11
2,AGGTTCACGTGAACAG,0.45
3,ATAATCACGTGTTATA,0.12
4,AAAGTCACGTGGAAAT,0.37
5,GAGTGCACGTGGAGAT,0.04
6,TAATGCACGTGTAGTT,0.07
7,GTTTACACGTGTCGGT,0.26
8,GTAGCCACGTGGTTTG,-0.06
9,TCGGTCACGTGGGAGG,0.08
10,AATTGCACGTGTGGTT,0.05
11,TTGGGCACGTGTGAAC,-0.14
12,TATAGCACGTGCGGGT,-0.1
13,AAATCCACGTGGGTTT,0.05
14,CGAGTCACGTGATGAT,0.32
15,GAAGTCACGTGTGTCG,0.13
16,TTTCTCACGTGAGTGC,0.45
17,AGTCTCACGTGTATGA,0.27
18,ATCGGCACGTGGGGTG,-0.42
19,GAGGGCACGTGTGTTC,-0.06
20,TTATCCACGTGAGGGT,0.1
21,TGTCTCACGTGTTGTG,0.22
22,TTTAACACGTGGTAAC,0.06
23,TTCTTCACGTGGGAAT,0.17
24,GTTGTCACGTGTCTTG,0.04
25,GGGTACACGTGTCTAG,0.1
26,AGCAGCACGTGTGGTG,-0.1

row,Sequence,relative binding free energy [kcal/mol]
1,TAGTGCACGTGGATGA,-0.14
2,GAGGTCACGTGGCTGG,0.18
3,GGGTGCACGTGATTGA,0.04
4,ACATGCACGTGGGTTG,-0.27
5,TAGTACACGTGAAGTG,0.1
6,GAGCGCACGTGGGGAG,-0.17
7,CGTGACACGTGGTTGT,-0.15
8,TGTTGCACGTGTGGTG,0.16
9,TTATACACGTGGACAG,0.2
10,TGGGCCACGTGGGTGA,-0.18
11,CCTTTCACGTGAGTGG,0.35
12,TTCTGCACGTGGTCAG,-0.11
13,GTTAGCACGTGGTGGG,-0.1
14,ATAAACACGTGGGGGT,-0.24
15,AGATACACGTGGTGGT,-0.08
16,AAGGTCACGTGGTGCC,0.08
17,TGTTTCACGTGTCAGG,0.3
18,CGGGTCACGTGTTAGC,0.27
19,AGGTACACGTGGTAGT,-0.01
20,TTGCGCACGTGCGGTT,-0.06
21,TTTGGCACGTGGAGAG,-0.08
22,TTGGCCACGTGGGTGG,-0.15
